According to US11178870B2 (priority 2017, dated 2021):

How the values were obtained:
Assay type in all cases: in vivo
Botrytis cinerea = assay: Test Example B: Gray mold on tomato; details: class of control value, Table 7
[1] = tested on: Blumeria graminis f. sp. hordei; assay: Test Example D: Powdery mildew on barley; details: class of control value, Table 7
Alternaia brassicicola = assay: Test Example C: Alternaria sooty spot on cabbage; details: class of control value, Table 7
Puccinia recondita = assay: Test Example E: Brown rust on wheat; details: class of control value, Table 7
Plasmopara viticola = assay: Test Example G: Downy mildew on vine; details: 250 ppm spray, 2.5 ml/pot; investigated 7 to 10 days after inoculation

## Cn1c(-c2c(F)cccc2F)c(-n2cc(F)cn2)cc(Cl)c1=O [Compound 461]
Botrytis cinerea
  Test B control value (gray mold on tomato): H (H shows the control value more than 50%)
[1]
  Test D control value (powdery mildew on barley): H (H shows the control value more than 50%)
Alternaia brassicicola
  Test C control value (Alternaria sooty spot on cabbage): H (H shows the control value more than 50%)
Puccinia recondita
  Test E control value (brown rust on wheat): H (H shows the control value more than 50%)
Plasmopara viticola
  Test G control value (downy mildew on vine): L (L shows the control value of 50% or less)

## Cn1c(-c2c(F)cccc2F)c(-n2cc(F)cn2)cc(Br)c1=O [Compound 462]
Botrytis cinerea
  Test B control value (gray mold on tomato): H (H shows the control value more than 50%)
[1]
  Test D control value (powdery mildew on barley): H (H shows the control value more than 50%)
Alternaia brassicicola
  Test C control value (Alternaria sooty spot on cabbage): H (H shows the control value more than 50%)
Puccinia recondita
  Test E control value (brown rust on wheat): H (H shows the control value more than 50%)
Plasmopara viticola
  Test G control value (downy mildew on vine): L (L shows the control value of 50% or less)

## Cn1c(-c2ccc(F)cc2F)c(-n2cc(F)cn2)ccc1=O [Compound 463]
Botrytis cinerea
  Test B control value (gray mold on tomato): L (L shows the control value of 50% or less)
[1]
  Test D control value (powdery mildew on barley): H (H shows the control value more than 50%)
Alternaia brassicicola
  Test C control value (Alternaria sooty spot on cabbage): H (H shows the control value more than 50%)
Puccinia recondita
  Test E control value (brown rust on wheat): L (L shows the control value of 50% or less)
Plasmopara viticola
  Test G control value (downy mildew on vine): L (L shows the control value of 50% or less)

## Cn1c(-c2ccc(F)cc2F)c(-n2cc(F)cn2)cc(Cl)c1=O [Compound 464]
Botrytis cinerea
  Test B control value (gray mold on tomato): H (H shows the control value more than 50%)
[1]
  Test D control value (powdery mildew on barley): L (L shows the control value of 50% or less)
Alternaia brassicicola
  Test C control value (Alternaria sooty spot on cabbage): H (H shows the control value more than 50%)
Puccinia recondita
  Test E control value (brown rust on wheat): H (H shows the control value more than 50%)
Plasmopara viticola
  Test G control value (downy mildew on vine): L (L shows the control value of 50% or less)

## Cn1c(-c2ccc(F)cc2F)c(-n2cc(F)cn2)cc(Br)c1=O [Compound 465]
Botrytis cinerea
  Test B control value (gray mold on tomato): H (H shows the control value more than 50%)
[1]
  Test D control value (powdery mildew on barley): L (L shows the control value of 50% or less)
Alternaia brassicicola
  Test C control value (Alternaria sooty spot on cabbage): H (H shows the control value more than 50%)
Puccinia recondita
  Test E control value (brown rust on wheat): H (H shows the control value more than 50%)
Plasmopara viticola
  Test G control value (downy mildew on vine): L (L shows the control value of 50% or less)

## CCn1c(-c2ccc(N3CCCC3)cc2F)c(-n2ncc(C)c2Cl)cc(Br)c1=O [Compound 466]
Botrytis cinerea
  Test B control value (gray mold on tomato): H (H shows the control value more than 50%)
[1]
  Test D control value (powdery mildew on barley): L (L shows the control value of 50% or less)
Alternaia brassicicola
  Test C control value (Alternaria sooty spot on cabbage): H (H shows the control value more than 50%)
Puccinia recondita
  Test E control value (brown rust on wheat): H (H shows the control value more than 50%)
Plasmopara viticola
  Test G control value (downy mildew on vine): L (L shows the control value of 50% or less)

## Nn1c(-c2c(F)cccc2F)c(-n2cc(F)cn2)cc(Br)c1=O [Compound 467]
Botrytis cinerea
  Test B control value (gray mold on tomato): H (H shows the control value more than 50%)
[1]
  Test D control value (powdery mildew on barley): L (L shows the control value of 50% or less)
Alternaia brassicicola
  Test C control value (Alternaria sooty spot on cabbage): L (L shows the control value of 50% or less)
Puccinia recondita
  Test E control value (brown rust on wheat): L (L shows the control value of 50% or less)
Plasmopara viticola
  Test G control value (downy mildew on vine): L (L shows the control value of 50% or less)

## CNn1c(-c2c(F)cccc2F)c(-n2cc(F)cn2)cc(Br)c1=O [Compound 468]
Botrytis cinerea
  Test B control value (gray mold on tomato): H (H shows the control value more than 50%)
[1]
  Test D control value (powdery mildew on barley): L (L shows the control value of 50% or less)
Alternaia brassicicola
  Test C control value (Alternaria sooty spot on cabbage): H (H shows the control value more than 50%)
Puccinia recondita
  Test E control value (brown rust on wheat): H (H shows the control value more than 50%)
Plasmopara viticola
  Test G control value (downy mildew on vine): L (L shows the control value of 50% or less)

## Cc1cnn(-c2cc(Br)c(=O)n(N(C)C)c2-c2ccc(F)cc2F)c1Cl [Compound 470]
Botrytis cinerea
  Test B control value (gray mold on tomato): H (H shows the control value more than 50%)
[1]
  Test D control value (powdery mildew on barley): H (H shows the control value more than 50%)
Alternaia brassicicola
  Test C control value (Alternaria sooty spot on cabbage): H (H shows the control value more than 50%)
Puccinia recondita
  Test E control value (brown rust on wheat): H (H shows the control value more than 50%)
Plasmopara viticola
  Test G control value (downy mildew on vine): H (H shows the control value more than 50%)

## CCn1c(-c2ccccc2C#N)c(-n2cc(C)cn2)cc(Br)c1=O [Compound 471]
Botrytis cinerea
  Test B control value (gray mold on tomato): L (L shows the control value of 50% or less)
[1]
  Test D control value (powdery mildew on barley): L (L shows the control value of 50% or less)
Alternaia brassicicola
  Test C control value (Alternaria sooty spot on cabbage): H (H shows the control value more than 50%)
Puccinia recondita
  Test E control value (brown rust on wheat): L (L shows the control value of 50% or less)
Plasmopara viticola
  Test G control value (downy mildew on vine): L (L shows the control value of 50% or less)

## CCn1c(-c2ccccc2C#N)c(-n2ncc(C)c2Cl)cc(Br)c1=O [Compound 472]
Botrytis cinerea
  Test B control value (gray mold on tomato): H (H shows the control value more than 50%)
[1]
  Test D control value (powdery mildew on barley): L (L shows the control value of 50% or less)
Alternaia brassicicola
  Test C control value (Alternaria sooty spot on cabbage): H (H shows the control value more than 50%)
Puccinia recondita
  Test E control value (brown rust on wheat): H (H shows the control value more than 50%)
Plasmopara viticola
  Test G control value (downy mildew on vine): H (H shows the control value more than 50%)

## Cc1cnn(-c2cc(Br)c(=O)n(N)c2-c2c(F)cccc2F)c1Cl [Compound 473]
Botrytis cinerea
  Test B control value (gray mold on tomato): H (H shows the control value more than 50%)
[1]
  Test D control value (powdery mildew on barley): L (L shows the control value of 50% or less)
Alternaia brassicicola
  Test C control value (Alternaria sooty spot on cabbage): H (H shows the control value more than 50%)
Puccinia recondita
  Test E control value (brown rust on wheat): H (H shows the control value more than 50%)
Plasmopara viticola
  Test G control value (downy mildew on vine): H (H shows the control value more than 50%)

## Cc1cnn(-c2ccc(=O)n(C)c2-c2ccc(F)cc2Cl)c1 [Compound 474]
Botrytis cinerea
  Test B control value (gray mold on tomato): H (H shows the control value more than 50%)
[1]
  Test D control value (powdery mildew on barley): H (H shows the control value more than 50%)
Alternaia brassicicola
  Test C control value (Alternaria sooty spot on cabbage): L (L shows the control value of 50% or less)
Puccinia recondita
  Test E control value (brown rust on wheat): H (H shows the control value more than 50%)
Plasmopara viticola
  Test G control value (downy mildew on vine): L (L shows the control value of 50% or less)

## CNn1c(-c2c(F)cccc2F)c(-n2ncc(C)c2Cl)cc(Br)c1=O [Compound 475]
Botrytis cinerea
  Test B control value (gray mold on tomato): H (H shows the control value more than 50%)
[1]
  Test D control value (powdery mildew on barley): H (H shows the control value more than 50%)
Alternaia brassicicola
  Test C control value (Alternaria sooty spot on cabbage): H (H shows the control value more than 50%)
Puccinia recondita
  Test E control value (brown rust on wheat): H (H shows the control value more than 50%)
Plasmopara viticola
  Test G control value (downy mildew on vine): H (H shows the control value more than 50%)

## Cc1cnn(-c2cc(Cl)c(=O)n(C)c2-c2ccc(F)cc2Cl)c1Cl [Compound 476]
Botrytis cinerea
  Test B control value (gray mold on tomato): H (H shows the control value more than 50%)
[1]
  Test D control value (powdery mildew on barley): H (H shows the control value more than 50%)
Alternaia brassicicola
  Test C control value (Alternaria sooty spot on cabbage): H (H shows the control value more than 50%)
Puccinia recondita
  Test E control value (brown rust on wheat): H (H shows the control value more than 50%)
Plasmopara viticola
  Test G control value (downy mildew on vine): H (H shows the control value more than 50%)

## Cc1cnn(-c2cc(Br)c(=O)n(N)c2-c2ccc(F)cc2Cl)c1Cl [Compound 477]
Botrytis cinerea
  Test B control value (gray mold on tomato): H (H shows the control value more than 50%)
[1]
  Test D control value (powdery mildew on barley): L (L shows the control value of 50% or less)
Alternaia brassicicola
  Test C control value (Alternaria sooty spot on cabbage): H (H shows the control value more than 50%)
Puccinia recondita
  Test E control value (brown rust on wheat): H (H shows the control value more than 50%)
Plasmopara viticola
  Test G control value (downy mildew on vine): L (L shows the control value of 50% or less)

## CNn1c(-c2ccc(F)cc2Cl)c(-n2ncc(C)c2Cl)cc(Br)c1=O [Compound 478]
Botrytis cinerea
  Test B control value (gray mold on tomato): H (H shows the control value more than 50%)
[1]
  Test D control value (powdery mildew on barley): H (H shows the control value more than 50%)
Alternaia brassicicola
  Test C control value (Alternaria sooty spot on cabbage): H (H shows the control value more than 50%)
Puccinia recondita
  Test E control value (brown rust on wheat): H (H shows the control value more than 50%)
Plasmopara viticola
  Test G control value (downy mildew on vine): L (L shows the control value of 50% or less)

## Cc1cnn(-c2cc(Br)c(=O)n(N(C)C)c2-c2ccc(F)cc2Cl)c1Cl [Compound 479]
Botrytis cinerea
  Test B control value (gray mold on tomato): H (H shows the control value more than 50%)
[1]
  Test D control value (powdery mildew on barley): H (H shows the control value more than 50%)
Alternaia brassicicola
  Test C control value (Alternaria sooty spot on cabbage): H (H shows the control value more than 50%)
Puccinia recondita
  Test E control value (brown rust on wheat): H (H shows the control value more than 50%)
Plasmopara viticola
  Test G control value (downy mildew on vine): H (H shows the control value more than 50%)
